Results as given in the supplement of paper PMC12645437, “Orthogonal IMiD-Degron Pairs Induce Selective Protein Degradation in Cells” (ACS Chemical Biology, 2025).
The other results are listed elsewhere or left out.

target: no compound (DMSO); test: log2 fold change of degron read counts, EGFP-low vs EGFP+ sorted cells; higher = lower degron-EGFP level without compound (poor expression or instability); conditions: compound: DMSO control; 18 h
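Also: jurkat cells carrying a lentiviral library of mutant zinc finger degrons fused to EGFP plus mCherry, mCherry+ cells FACS sorted, degron abundance counted by next-generation sequencing.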

Sequence | log2 fold change of degron read counts
LFCNQCGFYCTQKGNLLRHIKL | 2.07
LGCEICGFHCTQKGNLLRHIKL | 0.409
FACNICGAAFTQKGNLLRHIKL | -1.2
FQCDVCGAYFTQKGNLLRHIKL | -0.944
FKCNQCGADFTQKGNLLRHIKL | -1.26
FTCDVCGAHFTQKGNLLRHIKL | -2.04
FQCNQCGHTFTQKGNLLRHIKL | -1.9
FKCDQCGAWFTQKGNLLRHIKL | -0.14
FRCEICGRPFTQKGNLLRHIKL | -0.205
FSCPICGHEFTQKGNLLRHIKL | -1.51
FMCPICGRGFTQKGNLLRHIKL | -0.0279
FLCEICGRRFTQKGNLLRHIKL | -1.25
FTCDQCGAMFTQKGNLLRHIKL | -1.53
LCCEICGFGCTQKGNLLRHIKL | -0.239
FDCEICGHWFTQKGNLLRHIKL | 1.52
FNCNQCGHVFTQKGNLLRHIKL | -0.261
FLCPVCGAFFTQKGNLLRHIKL | 0.532
FGCDQCGAEFTQKGNLLRHIKL | -1.43
FHCSVCGHCFTQKGNLLRHIKL | -0.18
FACDICGAKFTQKGNLLRHIKL | -1.46
FKCEICGHHFTQKGNLLRHIKL | -1.7
FKCPICGADFTQKGNLLRHIKL | -0.308
FQCNQCGHIFTQKGNLLRHIKL | -0.286
FSCDICGATFTQKGNLLRHIKL | -1.35
FWCNVCGANFTQKGNLLRHIKL | 0.488

Sequence | log2 fold change of degron read counts
FGCEVCGAMFTQKGNLLRHIKL | -1.06
LRCPICGFLCTQKGNLLRHIKL | 1.62
FYCNQCGAMFTQKGNLLRHIKL | 0.574
FFCEICGHQFTQKGNLLRHIKL | -1.08
FKCEQCGAKFTQKGNLLRHIKL | -1.83
FDCNQCGATFTQKGNLLRHIKL | -1.54
FICEICGAKFTQKGNLLRHIKL | -1.24
LTCNQCGFVCTQKGNLLRHIKL | 0.325
FMCNQCGHFFTQKGNLLRHIKL | 0.613
FACNQCGHHFTQKGNLLRHIKL | -0.449
FKCEVCGAYFTQKGNLLRHIKL | -1.37
FHCNICGACFTQKGNLLRHIKL | -0.302
FFCPICGRIFTQKGNLLRHIKL | -0.118
FICNQCGAQFTQKGNLLRHIKL | -1.01
LHCNQCGFQCTQKGNLLRHIKL | 0.31
LFCPICGFFCTQKGNLLRHIKL | 2.52
FGCPQCGALFTQKGNLLRHIKL | 0.0912
FQCEICGRCFTQKGNLLRHIKL | -1.17
LRCEICGFNCTQKGNLLRHIKL | 0.458
FHCNQCGRSFTQKGNLLRHIKL | -0.0142
FRCEICGRIFTQKGNLLRHIKL | -0.92
FVCDICGADFTQKGNLLRHIKL | -1.1
FICNVCGAVFTQKGNLLRHIKL | -0.142
FCCPICGAVFTQKGNLLRHIKL | 0.5
FQCPQCGAIFTQKGNLLRHIKL | -0.66
